This is one part of the list. Sequences were assembled here from the parent chain. Values near 0.05 are background.
B1: TEV protease; numbered along this chain (parent)
chain: MGESLFKGPRDYNPISSSICHLTNESDGHTTSLYGIGFGPFIITNKHLFRRNNGTLVVQSLHGVFKVKDTTTLQQHLVDGRDMIIIRMPKDFPPFPQKLKFREPQREERICLVTTNFQTKSMSSMVSDTSCTFPSGDGIFWKHWIQTKDGQCGSPLVSTRDGFIVGIHSASNFTNTNNYFTSVPKNFMELLTNQEAQQWVSGWRLNADSVLWGGHKVFMVKPEEPFQPVKEATQL

Variants of: B1
Experiment: raw area under fraction-flipped curve 0-4 h after induction (AUC4h, not background-subtracted), DNA-recorder readout of cleavage of the substrate (dimensionless); higher = more cleavage of the substrate by the protease variant
Settings: temperature: 34 °C; time window: 0-4 h after rhamnose induction
Description: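 In vivo DNA recorder in E. coli TOP10(DE3) ΔrhaA at 34 °C. Each TEVp single-site mutant (parent TEVp 0) is paired with a single-site variant of the 7-mer TEVs (canonical ENLYFQ|S). The substrate sits between flexible linkers in a Bxb1-sfGFP-TEVs-SsrA fusion, so cleavage stabilises Bxb1 and speeds flipping of a recombination array, read by NGS. The value is the raw area under the fraction-flipped curve over 0-4 h after rhamnose induction (AUC4h), with ≥20 reads per time point. It is not background-subtracted; inactive controls average about 0.047.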
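Note: Bxb1 expression induced with 0.2% (w/v) L-rhamnose at OD600 near 0.5, cultures sampled hourly, flipped fraction per protease–substrate barcode pair counted by paired-end Illumina sequencing.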

Variant	area with substrate ENLAFQS	area with substrate ENLCFQS	area with substrate ENLDFQS	area with substrate ENLEFQS	area with substrate ENLFFQS	area with substrate ENLIFQS	area with substrate ENLKFQS	area with substrate ENLNFQS	area with substrate ENLPFQS	area with substrate ENLQFQS	area with substrate ENLRFQS	area with substrate ENLSFQS	area with substrate ENLVFQS	area with substrate ENLHFQS	area with substrate ENLLFQS	area with substrate ENLGFQS	area with substrate ENLMFQS	area with substrate ENLWFQS	area with substrate ENLTFQS
K46C	0.0602	0.0669	0.0639	0.0621	0.0783	0.0809	0.0688	0.0497	0.0534	0.033	0.0639	0.0604	0.0655						
K46M	0.0498			0.0652	0.0653	0.0461	0.069	0.0646	0.0464	0.0566	0.0697	0.0478	0.0524	0.065	0.0607				
K46T	0.059		0.0606	0.0582	0.0955		0.0626	0.082	0.0657			0.0594	0.0696		0.0595	0.0576	0.0634	0.0603	
F49A	0.0558	0.0314	0.0598	0.0577	0.06	0.0577	0.0593	0.0603		0.057	0.0714	0.0519	0.0636	0.0588	0.0574				
F49I	0.0625	0.0499	0.0579	0.0557	0.0676	0.0651	0.0632	0.0624	0.0524			0.0538			0.0596				0.0606
R50K	0.0587		0.065	0.0397	0.0726	0.0822	0.0807	0.0623	0.0628	0.0547	0.0591		0.0747	0.0763	0.0712	0.0603		0.0722	
R50P	0.0727	0.0677	0.0548	0.0632	0.0764	0.0674	0.0702	0.0678	0.0592	0.0548	0.0772	0.0398		0.0676	0.0501		0.063	0.0622	
N52C	0.0747		0.0646			0.0665	0.0662	0.0712	0.0591	0.0408	0.0723	0.0536		0.0701	0.0687	0.069		0.0677	
N52P	0.0497		0.0687	0.0673	0.144		0.0699				0.0671	0.0653	0.0753		0.0492		0.0819		0.0617
N53C	0.0759		0.0683		0.0963	0.0194	0.0894		0.0733	0.0677	0.083	0.0712	0.0801	0.0618	0.087	0.0723	0.0707	0.0626	0.0414
N53M	0.0643	0.0627	0.0619	0.0629	0.0735	0.0612	0.0642	0.0633	0.0605	0.0438	0.0683	0.0685	0.0527		0.0786		0.0676	0.0582	
N53S	0.0691	0.0739			0.0786	0.0832	0.0811	0.0729	0.06		0.0725	0.0671	0.0928	0.0749		0.056		0.0547	
N53V	0.0634	0.0662	0.0513	0.0757	0.0773	0.0702	0.0596	0.067	0.0647	0.0791		0.0599	0.0701	0.0488		0.0719		0.0677	
G54V	0.0601	0.0598	0.067		0.0662	0.0392	0.0618	0.0546	0.062	0.0558	0.0549	0.0665		0.054	0.0423			0.0585	
T55S	0.0697	0.0711	0.0678	0.114	0.0793	0.0775	0.0662	0.0717			0.0763	0.0655	0.0937	0.0661		0.0496	0.0601	0.0806	
S60H	0.0667	0.0713	0.0739	0.0778	0.107		0.0867	0.0556		0.0701		0.0543	0.117	0.113	0.0915			0.0624	
S60K	0.0685	0.0668	0.0662		0.0692			0.0584		0.0847				0.0205			0.0625	0.0612	
L61W	0.0752		0.0643		0.0783	0.084	0.0728	0.0802			0.0682			0.0586				0.0667	
H62A	0.0533	0.0699	0.0586	0.0652	0.0728		0.0745	0.085	0.0671		0.0894	0.0278	0.0606	0.078					
F65G	0.072	0.0314	0.0597	0.0331	0.0762	0.0744	0.0649	0.0468			0.0507			0.0327	0.0608				
K66L	0.0751	0.0651	0.0672		0.0852	0.0868	0.0919	0.0601	0.0688	0.0547	0.0814	0.0621	0.0766	0.0645		0.0782		0.0588	
D69E	0.0654	0.0534	0.0665		0.0729		0.0694	0.0629	0.072			0.0643	0.0755						
T70E	0.0421		0.0796	0.0861	0.0665			0.0658	0.0441			0.0593	0.0884	0.0486					0.0543
T70I	0.0645		0.0672	0.0595	0.0843	0.0692	0.0603	0.0632		0.0698	0.0751	0.062		0.0693	0.0639		0.0712		
L73I	0.0723	0.0764	0.0618	0.0668	0.0798	0.0821	0.0742	0.0887	0.0665	0.0661	0.0797	0.0708		0.0747	0.0711	0.0605	0.0699	0.0697	
Q75F	0.0612	0.0618	0.0679	0.0619	0.111	0.0743	0.0908	0.0696	0.0621		0.0505	0.0609	0.0807	0.0654	0.08		0.0612		
